In US10517867B2, “Posaconazole derivative, pharmaceutical composition and use thereof” (priority 2016, dated 2019):
At least one structure is not confirmed: it was looked up by name or label, or the drawing left a doubt.

Test: Solid stability test (stability chamber, HPLC total impurity)
Type: physicochemical
Conditions: packaged, 25° C.±2° C., relative humidity 60%±2%

| Total impurity increment in 30 days [%] | Compound |
| --- | --- |
| 1.67 | CC[C@@H]([C@H](C)OC(=O)OC(C)OC(=O)C(=O)[O-])n1ncn(-c2ccc(N3CCN(c4ccc(OC[C@@H]5CO[C@@](Cn6cncn6)(c6ccc(F)cc6F)C5)cc4)CC3)cc2)c1=O.[Na+] (stereo partly shown) [ST0047] |
| 1.82 | CC[C@@H]([C@H](C)OC(=O)OC(C)OC(=O)c1ccc(C(=O)[O-])cc1)n1ncn(-c2ccc(N3CCN(c4ccc(OC[C@@H]5CO[C@@](Cn6cncn6)(c6ccc(F)cc6F)C5)cc4)CC3)cc2)c1=O.[Na+] (stereo partly shown) [ST0049] |
| 2.33 | CC[C@@H](C(C)OC(=O)OC(C)OC(=O)CN(C)S(=O)(=O)[O-])n1ncn(-c2ccc(N3CCN(c4ccc(OC[C@@H]5CO[C@@](Cn6cncn6)(c6ccc(F)cc6F)C5)cc4)CC3)cc2)c1=O.[Na+] (stereo partly shown) [ST0056] |
| 0.76 | CC[C@@H]([C@H](C)OC(=O)OCCOP(=O)([O-])[O-])n1ncn(-c2ccc(N3CCN(c4ccc(OC[C@@H]5CO[C@@](Cn6cncn6)(c6ccc(F)cc6F)C5)cc4)CC3)cc2)c1=O.[Na+].[Na+] [ST0059] |
| 1.24 | CC[C@@H]([C@H](C)OC(=O)OCCOCCOCCOP(=O)([O-])[O-])n1ncn(-c2ccc(N3CCN(c4ccc(OC[C@@H]5CO[C@@](Cn6cncn6)(c6ccc(F)cc6F)C5)cc4)CC3)cc2)c1=O.[Na+].[Na+] [ST0061] |
| 0.43 | CC[C@@H]([C@H](C)OC(=O)OC(C)OC(=O)CCCOP(=O)([O-])[O-])n1ncn(-c2ccc(N3CCN(c4ccc(OC[C@@H]5CO[C@@](Cn6cncn6)(c6ccc(F)cc6F)C5)cc4)CC3)cc2)c1=O.[Na+].[Na+] (stereo partly shown) [ST0062] |
| 0.89 | CC[C@@H]([C@H](C)OC(=O)OC(C)OC(=O)COP(=O)([O-])[O-])n1ncn(-c2ccc(N3CCN(c4ccc(OC[C@@H]5CO[C@@](Cn6cncn6)(c6ccc(F)cc6F)C5)cc4)CC3)cc2)c1=O.[Na+].[Na+] (stereo partly shown) [ST0065] |
| 1.62 | CC[C@@H](C(C)OC(=O)OC(C)OC(=O)CCCCOP(=O)([O-])[O-])n1ncn(-c2ccc(N3CCN(c4ccc(OC[C@@H]5CO[C@@](Cn6cncn6)(c6ccc(F)cc6F)C5)cc4)CC3)cc2)c1=O.[Na+].[Na+] (stereo partly shown) [ST0068] |
| 0.88 | CC[C@@H](C(C)OC(=O)OC(C)OC(=O)CCCCCCCOP(=O)([O-])[O-])n1ncn(-c2ccc(N3CCN(c4ccc(OC[C@@H]5CO[C@@](Cn6cncn6)(c6ccc(F)cc6F)C5)cc4)CC3)cc2)c1=O.[Na+].[Na+] (stereo partly shown) [ST0069] |
| 0.87 | CC[C@@H](C(C)OC(=O)OC(C)OC(=O)COS(=O)(=O)[O-])n1ncn(-c2ccc(N3CCN(c4ccc(OC[C@@H]5CO[C@@](Cn6cncn6)(c6ccc(F)cc6F)C5)cc4)CC3)cc2)c1=O.[Na+] (stereo partly shown) [ST0075] |
| 2.31 | CC[C@@H](C(C)OC(=O)OC(C)OC(=O)CCOS(=O)(=O)[O-])n1ncn(-c2ccc(N3CCN(c4ccc(OC[C@@H]5CO[C@@](Cn6cncn6)(c6ccc(F)cc6F)C5)cc4)CC3)cc2)c1=O.[Na+] (stereo partly shown) [ST0076] |
| 1.52 | CC[C@@H]([C@H](C)OC(=O)OC(C)OC(=O)CCCCCCOS(=O)(=O)[O-])n1ncn(-c2ccc(N3CCN(c4ccc(OC[C@@H]5CO[C@@](Cn6cncn6)(c6ccc(F)cc6F)C5)cc4)CC3)cc2)c1=O.[Na+] (stereo partly shown) [ST0081] |
| 2.05 | CC[C@@H]([C@H](C)OC(=O)OC(C)OC(=O)C(O)COP(=O)([O-])[O-])n1ncn(-c2ccc(N3CCN(c4ccc(OC[C@@H]5CO[C@@](Cn6cncn6)(c6ccc(F)cc6F)C5)cc4)CC3)cc2)c1=O.[Na+].[Na+] (stereo partly shown) [ST0089] |
| 0.41 | CC[C@@H]([C@H](C)OS(=O)(=O)[O-])n1ncn(-c2ccc(N3CCN(c4ccc(OC[C@@H]5CO[C@@](Cn6cncn6)(c6ccc(F)cc6F)C5)cc4)CC3)cc2)c1=O.[Na+] [ST0095] |
| 2.57 | CC[C@@H]([C@H](C)OC(=O)OC(C)OC(=O)C(C(=O)[O-])C(=O)[O-])n1ncn(-c2ccc(N3CCN(c4ccc(OC[C@@H]5CO[C@@](Cn6cncn6)(c6ccc(F)cc6F)C5)cc4)CC3)cc2)c1=O.[Na+].[Na+] (stereo partly shown) [ST0100] |

Second part, the compound before the results:

| Compound | Total impurity increment in 30 days [%] |
| --- | --- |
| CC[C@@H]([C@H](C)O)n1ncn(-c2ccc(N3CCN(c4ccc(OC[C@@H]5CO[C@@](Cn6c[n+](C(C)OC(=O)N(C)c7ncccc7COC(=O)[C@@H](N)CCCN)cn6)(c6ccc(F)cc6F)C5)cc4)CC3)cc2)c1=O (stereo partly shown) [ST0013] | 0.45 |
| CC[C@@H]([C@H](C)OC(=O)OC(C)OC(=O)CCC(=O)[O-])n1ncn(-c2ccc(N3CCN(c4ccc(OC[C@@H]5CO[C@@](Cn6cncn6)(c6ccc(F)cc6F)C5)cc4)CC3)cc2)c1=O.[Na+] (stereo partly shown) [ST0046] | 0.92 |
| CC[C@@H]([C@H](C)OC(=O)OC(C)OC(=O)CCCCCOP(=O)([O-])[O-])n1ncn(-c2ccc(N3CCN(c4ccc(OC[C@@H]5CO[C@@](Cn6cncn6)(c6ccc(F)cc6F)C5)cc4)CC3)cc2)c1=O.[Na+].[Na+] (stereo partly shown) [ST0063] | 0.38 |
| CC[C@@H](C(C)OC(=O)OC(C)OC(=O)CCCCCCOP(=O)([O-])[O-])n1ncn(-c2ccc(N3CCN(c4ccc(OC[C@@H]5CO[C@@](Cn6cncn6)(c6ccc(F)cc6F)C5)cc4)CC3)cc2)c1=O.[Na+].[Na+] (stereo partly shown) [ST0070] | 0.30 |
| CC[C@@H](C(C)OC(=O)OC(C)OC(=O)CCCCCCCCOP(=O)([O-])[O-])n1ncn(-c2ccc(N3CCN(c4ccc(OC[C@@H]5CO[C@@](Cn6cncn6)(c6ccc(F)cc6F)C5)cc4)CC3)cc2)c1=O.[Na+].[Na+] (stereo partly shown) [ST0071] | 0.50 |
| CC[C@@H](C(C)OC(=O)OC(C)OC(=O)CCCCCCCCCOP(=O)([O-])[O-])n1ncn(-c2ccc(N3CCN(c4ccc(OC[C@@H]5CO[C@@](Cn6cncn6)(c6ccc(F)cc6F)C5)cc4)CC3)cc2)c1=O.[Na+].[Na+] (stereo partly shown) [ST0072] | 1.50 |
| CC[C@@H]([C@H](C)OC(=O)OCOC(=O)CCCCCOP(=O)([O-])[O-])n1ncn(-c2ccc(N3CCN(c4ccc(OC[C@@H]5CO[C@@](Cn6cncn6)(c6ccc(F)cc6F)C5)cc4)CC3)cc2)c1=O.[Na+].[Na+] [ST0073] | 0.28 |
| CC[C@@H](C(C)OC(=O)OCOC(=O)CCCCCCOP(=O)([O-])[O-])n1ncn(-c2ccc(N3CCN(c4ccc(OC[C@@H]5CO[C@@](Cn6cncn6)(c6ccc(F)cc6F)C5)cc4)CC3)cc2)c1=O.[Na+].[Na+] (stereo partly shown) [ST0074] | 0.33 |
| CC[C@@H](C(C)OC(=O)OC(C)OC(=O)CCCOS(=O)(=O)[O-])n1ncn(-c2ccc(N3CCN(c4ccc(OC[C@@H]5CO[C@@](Cn6cncn6)(c6ccc(F)cc6F)C5)cc4)CC3)cc2)c1=O.[Na+] (stereo partly shown) [ST0077] | 0.25 |
| CC[C@@H](C(C)OC(=O)OC(C)OC(=O)CCCCOS(=O)(=O)[O-])n1ncn(-c2ccc(N3CCN(c4ccc(OC[C@@H]5CO[C@@](Cn6cncn6)(c6ccc(F)cc6F)C5)cc4)CC3)cc2)c1=O.[Na+] (stereo partly shown) [ST0078] | 0.40 |
| CC[C@@H](C(C)OC(=O)OC(C)OC(=O)CCCCCOS(=O)(=O)[O-])n1ncn(-c2ccc(N3CCN(c4ccc(OC[C@@H]5CO[C@@](Cn6cncn6)(c6ccc(F)cc6F)C5)cc4)CC3)cc2)c1=O.[Na+] (stereo partly shown) [ST0079] | 0.42 |
| CC[C@@H]([C@H](C)OC(=O)OC(C)OC(=O)Cc1ccc(OS(=O)(=O)[O-])cc1)n1ncn(-c2ccc(N3CCN(c4ccc(OC[C@@H]5CO[C@@](Cn6cncn6)(c6ccc(F)cc6F)C5)cc4)CC3)cc2)c1=O.[Na+] (stereo partly shown) [ST0080] | 1.15 |
| CC[C@@H]([C@H](C)OC(=O)OC(C)OC(=O)CCCCCCCOS(=O)(=O)[O-])n1ncn(-c2ccc(N3CCN(c4ccc(OC[C@@H]5CO[C@@](Cn6cncn6)(c6ccc(F)cc6F)C5)cc4)CC3)cc2)c1=O.[Na+] (stereo partly shown) [ST0082] | 0.83 |
